Measured values published in patent US10897903B2, “Method for controlling PPO resistant weeds” (BASF SE, priority 2016, dated 2021).
Like-named read-outs stand apart in the source and are kept apart here.

Tested on: PPO resistant common waterhemp (Amaranthus tamariscinus, AMATA) that contains the ΔG210 mutation
Details: for activity in words on PPO resistant common waterhemp that contains the ΔG210 mutation: summary of Example 4 table; for Weed control (%) of PPO resistant AMATA that contains the ΔG210 mutation: field, 14 days after treatment

For `CS(=O)(=O)NC(=O)c1cc(Oc2ccc(C(F)(F)F)cc2Cl)ccc1[N+](=O)[O-]` [Fomesafen, fomesafen], the “activity in words on PPO resistant common waterhemp that contains the ΔG210 mutation” value was “only very limited herbicidal effect”, the “Weed control (%) of PPO resistant AMATA that contains the ΔG210 mutation” value (use rate 420 g/ha) was 5% and the “Weed control (%) of PPO resistant AMATA that contains the ΔG210 mutation” value (use rate 840 g/ha) was 8%.

In the case of `Cc1nn(-c2cc(NS(C)(=O)=O)c(Cl)cc2Cl)c(=O)n1C(F)F` [Sulfentrazone, sulfentrazone], the “activity in words on PPO resistant common waterhemp that contains the ΔG210 mutation” value is reported as “only very limited herbicidal effect”, the “Weed control (%) of PPO resistant AMATA that contains the ΔG210 mutation” value (use rate 280 g/ha) is reported as 18% and the “Weed control (%) of PPO resistant AMATA that contains the ΔG210 mutation” value (use rate 560 g/ha) is reported as 23%.

`C#CCN1C(=O)C(F)(F)Oc2cc(F)c(-n3c(=O)n(C)c(=S)n(C)c3=O)cc21` [I.a.35] was tested, and the “activity in words on PPO resistant common waterhemp that contains the ΔG210 mutation” value was “very good activity”, the “Weed control (%) of PPO resistant AMATA that contains the ΔG210 mutation” value (use rate 50 g/ha) was 79% and the “Weed control (%) of PPO resistant AMATA that contains the ΔG210 mutation” value (use rate 100 g/ha) was 85%.

For `C#CCN1C(=O)COc2cc(F)c(N3C(=O)C4=C(CCCC4)C3=O)cc21` [Flumioxazin, flumioxazin], the “activity in words on PPO resistant common waterhemp that contains the ΔG210 mutation” value was “only very limited herbicidal effect”, the “Weed control (%) of PPO resistant AMATA that contains the ΔG210 mutation” value (use rate 71.5 g/ha) was 20% and the “Weed control (%) of PPO resistant AMATA that contains the ΔG210 mutation” value (use rate 143 g/ha) was 32%.
